Publication PMC4336329 (PLoS ONE, 2015)
Out of some 310,000 compounds screened, about 2,200 (0.71%) showed an effect of 50% or more. The effect is printed as a negative number. The list shows a part of the results.

target: human ether-à-go-go-related gene (hERG) potassium channel (human, UniProt Q12809); assay: primary screen, population patch clamp on CHO cells stably expressing hERG
Sequence (Q12809 whole entry, looked up): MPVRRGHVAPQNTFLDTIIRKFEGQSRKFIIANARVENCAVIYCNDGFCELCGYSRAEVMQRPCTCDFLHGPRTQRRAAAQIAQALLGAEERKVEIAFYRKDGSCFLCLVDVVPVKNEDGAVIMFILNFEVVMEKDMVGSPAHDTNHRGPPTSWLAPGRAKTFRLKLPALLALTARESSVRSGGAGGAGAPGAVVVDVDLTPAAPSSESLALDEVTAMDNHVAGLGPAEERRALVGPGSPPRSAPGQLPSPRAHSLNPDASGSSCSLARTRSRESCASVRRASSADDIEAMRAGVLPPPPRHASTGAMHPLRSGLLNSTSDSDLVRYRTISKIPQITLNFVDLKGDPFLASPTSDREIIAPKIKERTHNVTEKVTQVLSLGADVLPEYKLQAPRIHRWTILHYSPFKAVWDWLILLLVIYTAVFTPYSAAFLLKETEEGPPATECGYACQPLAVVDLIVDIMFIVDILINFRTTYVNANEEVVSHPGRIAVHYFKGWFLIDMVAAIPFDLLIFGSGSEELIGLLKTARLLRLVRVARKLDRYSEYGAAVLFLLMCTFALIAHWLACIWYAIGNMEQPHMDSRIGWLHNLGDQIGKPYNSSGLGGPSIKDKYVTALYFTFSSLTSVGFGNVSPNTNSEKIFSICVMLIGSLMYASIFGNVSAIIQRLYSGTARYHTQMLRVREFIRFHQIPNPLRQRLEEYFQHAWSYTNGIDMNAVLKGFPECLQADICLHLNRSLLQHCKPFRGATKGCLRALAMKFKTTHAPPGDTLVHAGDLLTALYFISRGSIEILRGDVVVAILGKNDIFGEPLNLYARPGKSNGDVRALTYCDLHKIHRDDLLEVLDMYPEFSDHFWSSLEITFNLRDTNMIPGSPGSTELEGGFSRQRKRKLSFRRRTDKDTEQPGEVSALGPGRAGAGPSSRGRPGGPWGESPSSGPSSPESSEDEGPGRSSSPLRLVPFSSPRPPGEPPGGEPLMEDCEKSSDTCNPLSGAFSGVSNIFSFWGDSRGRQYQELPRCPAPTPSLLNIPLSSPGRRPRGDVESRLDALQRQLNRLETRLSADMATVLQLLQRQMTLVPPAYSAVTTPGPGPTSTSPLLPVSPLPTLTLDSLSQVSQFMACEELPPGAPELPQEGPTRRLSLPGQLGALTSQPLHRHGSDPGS

SMILES | hERG current change (%, negative = inhibition) at 1uM [%]
O=S(=O)(Nc1ccc(O)c(CN2CCCCC2)c1)c1ccccc1 | -1.46
Cn1cc(CN2CCC(Oc3ccc(C(=O)N4CCCC4)cc3)CC2)cn1 | 11.7
O=C(/C=C/c1ccccc1)NCc1cccnc1 | 14.8
COc1cccc(NC(=S)N2CCC(NC(=O)C3CCCCC3)CC2)c1 | 13.6
O=c1oc(-c2ccccc2Cl)nc2ccsc12 | 6.55
COc1cc2nc(N3CCN(C(=O)OCc4ccccc4)[C@H](C(=O)NC(C)(C)C)C3)nc(N)c2cc1OC.O | 5.96
CCCCOc1ccc(-c2n[nH]c(=S)n2Cc2ccccc2)cc1 | 12.8
COc1ccc(N2CCN(C(=O)c3ccc(Br)o3)CC2)cc1 | 1.91
O=C(Cc1ccc(Cl)cc1)Oc1cccc2cccnc12 | 10.4
NCCCN1CCOCC1 | -6.97
O=C(O)c1ccc(N2C(=O)CC(SC(=Nc3ccccc3)Nc3ccccc3)C2=O)cc1 (stereo not shown) | 16.7
O=C(CCC1CCCC1)NC1CCCCC1 | 8.53
CCOc1ccccc1CN1CCNC(=O)C1CC(=O)NC1CCCCCCC1 (stereo not shown) | 1.87
CCOc1ccc(OCC(=O)N(CCC2=CCCCC2)c2c(N)n(Cc3ccccc3)c(=O)[nH]c2=O)cc1 | 13.9
CN(C(=O)NC1CCCCC1)c1ccccc1 | 10.6
O=C(O)C1C2C=CC(C2)C1C(=O)NCc1ccc2c(c1)OCO2 (stereo not shown) | -1.95
CCOc1ccc(C(=O)Nc2cccc(-c3cc4ccccc4oc3=O)c2)cc1[N+](=O)[O-] | 4.76
Cc1ccccc1C(=O)NCCn1cc(SCC(=O)NCC2CCCO2)c2ccccc21 (stereo not shown) | 7.28
CCN(CC)C(=S)Nc1cc(C(=O)OC)ccc1C(=O)OC | 10.2
COc1cccc(-c2cc(C(=O)N3CCCCC3C)no2)c1 (stereo not shown) | 13.9
CCOCCCNC(=O)COc1ccc(OC)cc1 | 12
CCCCN1CC[C@H]2C=CC[C@@H](C(=O)Nc3ccc(OC)cc3)[C@H]2C1=O | -19.8
Cc1ccc(NC(=O)COC(=O)c2cc(C)nc3ccccc23)c([N+](=O)[O-])c1 | 11.8

SMILES | hERG current change (%, negative = inhibition) at 1uM [%]
CCCOc1ccc(OCCCCNC(C)CC)cc1.O=C(O)C(=O)O (stereo not shown) | 1.92
Cn1c(=O)cc(OCCCC(=O)NCCCN2CCN(Cc3ccccc3)CC2)c2ccccc21 | 7.35
Cn1nc(C(=O)NCc2ccc(F)cc2)c2c1-c1ccccc1S(=O)(=O)C2 | -4.01
O=C(NCc1ccc(F)cc1)C(=O)NCC1OCCCN1S(=O)(=O)c1cccs1 (stereo not shown) | 11.4
C=CCn1c(O)c(C=Nc2c(C)n(C)n(-c3ccccc3)c2=O)c(=O)[nH]c1=O | -5.22
CCOC(=O)c1c(C)[nH]c(C(=O)CSc2nnc(CC(C)c3ccccc3)o2)c1C (stereo not shown) | 10.3
CCN(CC)CCN(C(=O)c1cc2ccccc2cc1OC)c1nc2ccc(F)cc2s1.Cl | 11.4
COC(=O)c1c(N)c2ccccc2[nH]c1=O | 11.2
COc1ccccc1OCCC(=O)OCCN1C(=O)c2ccccc2C1=O | 6.21
Cc1c(C)n(Cc2ccc(F)cc2)c2ccc(C(=O)NCCCN3CCOCC3)cc12 | 1.06
O=C(O)CCSc1nc2ccccc2n1Cc1ccccc1 | 13.1
CC(C)(C)C(=O)O/N=C(\N)c1ccc(Br)cc1 | 11.1
COC(=O)c1cn(CC(=O)N2CCCCC2C)c2ccccc12 (stereo not shown) | 0.442
CC(C)NC(=O)Cn1cnc2c(cnn2-c2ccc(F)cc2)c1=O | 14.4
COc1ccccc1CNC(=O)C1CCN(Cc2nc(-c3cccc(Cl)c3)oc2C)CC1 | -68.3
COc1ccc(/C=C/C(=O)O/N=C(\N)c2cccnc2)cc1OC | -1.96
N#C/C(=N\Nc1ccccc1F)c1nc(-c2ccccc2)cs1 | 14.8
CCNc1ccc2c(Cl)cc(=O)oc2c1 | 4.44
Cc1cc(C)n(-c2ncc(-c3ccccc3)nn2)n1 | -13.8
O=C(CN1C(=O)CCSc2ccccc21)Nc1cccc(F)c1 | -0.243
CC(=O)Nc1ccc(S(=O)(=O)Nc2nc(CN3CCOCC3)nc3sc4c(c23)CCCC4)cc1 | 13.5
Cc1cc(S(=O)(=O)Nc2cccc(C(=O)O)c2)c(C)c(S(=O)(=O)c2ccc(Cl)cc2)c1 | 17.5
Cc1ccc(CCN2CC(C(=O)NCCCN3CCOCC3)CC2=O)cc1 (stereo not shown) | 16.5
